# Laboratory results: patent US12202887B2, “Eradication of bacterial biofilm using anti-amyloid monoclonal antibodies” (priority 2018, dated 2025)
# B1: ALZ.3H3: human monoclonal antibody with pan-amyloid binding activity; heavy chain SEQ ID NO:2, light chain SEQ ID NO:35 (antibody)
# VH: MEFGLSWVFLVALLRGVQCQVQLVESGGGVVQPGRSLRLSCAASGFSFSTYGMHWVRQAPGKGLEWVAVISYDGSRKYYADTGKGRFTISRDNSKNTLYLEMNGLRAEDTAVYHCAKDLRRELGFGNRDYHYYGMDAWGQGTTVTVSSASTK
# light: LTQPRSVSGSPGQSVTMSCTGTNSDIGGYNYVSWYQQHPGKAPKLMIYDVYKRPSGVPDRFSGSKSGNTASLTISGLQAEDEADYYCCSYAGTNNLIFGGGTKLTVLGQPKAAPSVTLFPPSSEELQANKATLVCLISDFYPGAVTVAWKADSSPVKAGVETTTPSKQSNNKYAASSYLSLTPEQWKSHRSYSCQV
# modifications: Chemically Synthesized, ALZ.3H3 Heavy Chain; Chemically Synthesized, ALZ.3H3 Light Chain
# Tested on: Salmonella typhimurium catheter biofilm
# Assay: In vivo catheter assay: Salmonella typhimurium colonized catheters inserted into back flanks of mice
# Conditions: combination: 100 ug ALZ3H3 into lumen + 1 mg/ml ampicillin in drinking water
molecule,measurement,value
B1,Biofilm growth on the catheter,markedly reduced the biofilm growth on the catheter
